# From the supplement of paper PMC8728848
# This is one part of the list.
# Columns and labels:
# Assay in all cases: glycan array binding signal (z-score within array); higher = stronger binding
# Conditions in all cases: glycan notation: IUPAC condensed, linker removed
# Gal3S4S(b1-4)GlcNAc = target: Gal3S4S(b1-4)GlcNAc
# Outline: (§1)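 The binding signal is a Z-score computed within each array and averaged over linkers. Arrays of the same protein sequence at different concentrations or buffers were also averaged together. Data originate from 3228 arrays in the Consortium for Functional Glycomics database, kept only where the protein sequence was available.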
# Gal3S6S(b1-4)GlcNAc = target: Gal3S6S(b1-4)GlcNAc
# Outline: as §1
# Gal3S6S(b1-4)GlcNAc6S = target: Gal3S6S(b1-4)GlcNAc6S
# Outline: as §1
# Gal4S(b1-4)GlcNAc = target: Gal4S(b1-4)GlcNAc
# Outline: as §1
# Gal4S6S(b1-4)GlcNAc = target: Gal4S6S(b1-4)GlcNAc
# Outline: as §1
# Gal6P(b1-4)GlcNAc = target: Gal6P(b1-4)GlcNAc
# Outline: as §1
# Gal6S(b1-3)GlcNAc = target: Gal6S(b1-3)GlcNAc
# Outline: as §1
# Gal6S(b1-3)GlcNAc6S = target: Gal6S(b1-3)GlcNAc6S
# Outline: as §1
# Gal6S(b1-4)Glc = target: Gal6S(b1-4)Glc
# Outline: as §1
# Gal6S(b1-4)Glc6S = target: Gal6S(b1-4)Glc6S
# Outline: as §1
# Gal6S(b1-4)GlcNAc = target: Gal6S(b1-4)GlcNAc
# Outline: as §1
# Gal6S(b1-4)GlcNAc6S = target: Gal6S(b1-4)GlcNAc6S
# Outline: as §1
# GalNAc(a1-3)Gal = target: GalNAc(a1-3)Gal
# Outline: as §1
# GalNAc(a1-3)GalNAc = target: GalNAc(a1-3)GalNAc
# Outline: as §1
# [1] = target: GalNAc(a1-3)GalNAc(b1-3)Gal(a1-4)Gal(b1-4)Glc
# Outline: as §1
# [2] = target: GalNAc(a1-3)GalNAc(b1-3)Gal(a1-4)Gal(b1-4)GlcNAc
# Outline: as §1
# GalNAc(b1-3)Gal = target: GalNAc(b1-3)Gal
# Outline: as §1
# [3] = target: GalNAc(b1-3)Gal(a1-4)Gal(b1-4)GlcNAc
# Outline: as §1
# [4] = target: GalNAc(b1-3)Gal(a1-4)Gal(b1-4)GlcNAc(b1-3)Gal(b1-4)Glc
# Outline: as §1
# [5] = target: GalNAc(b1-3)Gal(a1-6)Gal(b1-4)Glc
# Outline: as §1
# GalNAc(b1-3)GalNAc = target: GalNAc(b1-3)GalNAc
# Outline: as §1
# GalNAc(b1-3)GlcNAc = target: GalNAc(b1-3)GlcNAc
# Outline: as §1
# GalNAc(b1-4)Gal(b1-4)Glc = target: GalNAc(b1-4)Gal(b1-4)Glc
# Outline: as §1
# GalNAc(b1-4)GlcNAc = target: GalNAc(b1-4)GlcNAc
# Outline: as §1
# [6] = target: GalNAc(b1-4)GlcNAc(b1-2)Man
# Outline: as §1
# [7] = target: GalNAc(b1-4)GlcNAc(b1-2)Man(a1-3)[GalNAc(b1-4)GlcNAc(b1-2)Man(a1-6)]Man(b1-4)GlcNAc(b1-4)GlcNAc
# Outline: as §1
# [8] = target: GalNAc(b1-4)GlcNAc(b1-3)GalNAc(b1-4)GlcNAc
# Outline: as §1
# GalNAc(b1-4)GlcNAc6S = target: GalNAc(b1-4)GlcNAc6S
# Outline: as §1
# GalNAc(b1-6)GalNAc = target: GalNAc(b1-6)GalNAc
# Outline: as §1
# GalNAc3S(b1-4)GlcNAc = target: GalNAc3S(b1-4)GlcNAc
# Outline: as §1
# GalNAc3S(b1-4)GlcNAc3S = target: GalNAc3S(b1-4)GlcNAc3S
# Outline: as §1
# [9] = target: GalNAc3S(b1-4)[Fuc(a1-3)]GlcNAc
# Outline: as §1
# GalNAc4S6S(b1-4)GlcNAc = target: GalNAc4S6S(b1-4)GlcNAc
# Outline: as §1
# GalNAc6S(b1-4)GlcNAc = target: GalNAc6S(b1-4)GlcNAc
# Outline: as §1
# Glc(a1-4)Glc = target: Glc(a1-4)Glc
# Outline: as §1
# [10] = target: Glc(a1-4)Glc(a1-4)Glc(a1-4)Glc
# Outline: as §1
# Glc(a1-6)Glc(a1-6)Glc = target: Glc(a1-6)Glc(a1-6)Glc
# Outline: as §1
# [11] = target: Glc(a1-6)Glc(a1-6)Glc(a1-6)Glc
# Outline: as §1
binder,measurement,setting,value
"Apa (Mycobacterium tuberculosis), Rv1860 (protein) MHQVDPNLTRRKGRLAALAIAAMASASLVTVAVPATANADPEPAPPVPTTAASPPSTAAAPPAPATPVAPPPPAAANTPNAQPGDPNAAPPPADPNAPPPPVIAPNAPQPVRIDNPVGGFSFALPAGWVESDAAHFDYGSALLSKTTGDPPFPGQPPPVANDTRIVLGRLDQKLYASAEATDSKAAARLGSDMGEFYMPYPGTRINQETVSLDANGVSGSASYYEVKFSDPSKPNGQIWTGVIGSPAANAPDAGPPQRWFVVWLGTANNPVDKGAAKALAESIRPLVAPPPAPAPAPAEPAPAPAPAGEVAPTPTTPTPQRTLPA",glycan array binding signal (z-score),Gal3S4S(b1-4)GlcNAc,0.179
same,glycan array binding signal (z-score),Gal3S6S(b1-4)GlcNAc,0.641
same,glycan array binding signal (z-score),Gal3S6S(b1-4)GlcNAc6S,0.639
same,glycan array binding signal (z-score),Gal4S(b1-4)GlcNAc,-0.369
same,glycan array binding signal (z-score),Gal4S6S(b1-4)GlcNAc,-0.135
same,glycan array binding signal (z-score),Gal6P(b1-4)GlcNAc,-0.315
same,glycan array binding signal (z-score),Gal6S(b1-3)GlcNAc,-0.335
same,glycan array binding signal (z-score),Gal6S(b1-3)GlcNAc6S,0.42
same,glycan array binding signal (z-score),Gal6S(b1-4)Glc,0.412
same,glycan array binding signal (z-score),Gal6S(b1-4)Glc6S,1.02
same,glycan array binding signal (z-score),Gal6S(b1-4)GlcNAc,-0.201
same,glycan array binding signal (z-score),Gal6S(b1-4)GlcNAc6S,-0.101
same,glycan array binding signal (z-score),GalNAc(a1-3)Gal,-0.135
same,glycan array binding signal (z-score),GalNAc(a1-3)GalNAc,-0.407
same,glycan array binding signal (z-score),[1],-0.489
same,glycan array binding signal (z-score),[2],0.718
same,glycan array binding signal (z-score),GalNAc(b1-3)Gal,0.01
same,glycan array binding signal (z-score),[3],1.77
same,glycan array binding signal (z-score),[4],-0.373
same,glycan array binding signal (z-score),[5],0.317
same,glycan array binding signal (z-score),GalNAc(b1-3)GalNAc,-0.334
same,glycan array binding signal (z-score),GalNAc(b1-3)GlcNAc,0.316
same,glycan array binding signal (z-score),GalNAc(b1-4)Gal(b1-4)Glc,0.95
same,glycan array binding signal (z-score),GalNAc(b1-4)GlcNAc,-0.065
same,glycan array binding signal (z-score),[6],-0.412
same,glycan array binding signal (z-score),[7],0.045
same,glycan array binding signal (z-score),[8],-0.527
same,glycan array binding signal (z-score),GalNAc(b1-4)GlcNAc6S,-0.421
same,glycan array binding signal (z-score),GalNAc(b1-6)GalNAc,0.188
same,glycan array binding signal (z-score),GalNAc3S(b1-4)GlcNAc,0.579
same,glycan array binding signal (z-score),GalNAc3S(b1-4)GlcNAc3S,-0.538
same,glycan array binding signal (z-score),[9],-0.391
same,glycan array binding signal (z-score),GalNAc4S6S(b1-4)GlcNAc,-0.233
same,glycan array binding signal (z-score),GalNAc6S(b1-4)GlcNAc,2.78
same,glycan array binding signal (z-score),Glc(a1-4)Glc,-0.058
same,glycan array binding signal (z-score),[10],-0.291
same,glycan array binding signal (z-score),Glc(a1-6)Glc(a1-6)Glc,-0.058
same,glycan array binding signal (z-score),[11],0.236
